# Reference: ChEMBL document CHEMBL1201862, “PubChem BioAssay data set” (2004)
# Test system: NCI-H322M
# Assay: NCI anticancer screen, dose series, 48 h
row,Compound,GI50
1,C[N+](C)(C)/N=C\c1ccc(O)c(O)c1,inactive: > 100 µM
2,C=CCc1cccc2cc(C(=O)NC3CCCCC3)c(=N)oc12,inactive: 14.2 µM
3,Cc1ccc(Nc2c3c(c(C#N)c4nc5ccccc5n24)CCCC3)cc1,inactive: 31.6 µM
4,C/C(CC(=O)Nc1ccc(NC(=O)/C(C)=N/NS(=O)(=O)c2ccc(C)cc2)cc1)=N\NS(=O)(=O)c1ccc(C)cc1,inactive: > 100 µM
5,O=C1CCc2nc3ncccc3cc2C1,inactive: > 100 µM
6,NS(=O)(=O)c1ccc(NC(=O)c2cc([N+](=O)[O-])cc([N+](=O)[O-])c2)cc1,inactive: 75.3 µM
7,CCOC(=O)C(=O)Nc1cccc(Cl)c1C,inactive: > 100 µM
8,O=C1C(Br)=Cc2c(Cl)sc(Cl)c21,inactive: 15.8 µM
9,COc1ccc2oc(=N)c(C(N)=O)cc2c1,inactive: 60.4 µM
10,NC(=O)C12CCC1C1CCCCC12N1CCOCC1 (stereo unspecified),inactive: > 100 µM
11,CCN1CSC(=S)N(CC)C1,inactive: > 100 µM
12,Cc1cc(NS(=O)(=O)c2ccc(Nc3c4ccccc4nc4c(C(=O)N5CCN(CCO)CC5)ccc(Cl)c34)cc2)no1,inactive: > 100 µM
13,CC(C)N(C)C(=O)C12C3C4C1C1C2C3C41C#N (stereo unspecified),inactive: > 100 µM
14,COc1cc(-c2[o+]c3cc(O)cc(O)c3cc2O)cc(O)c1O,inactive: > 100 µM
15,C=CCOC1OC(CO[Si](C)(C)C(C)(C)C)C(OCc2ccccc2)C(OCc2ccccc2)C1OCc1ccccc1 (stereo unspecified),inactive: 54.5 µM
16,CCCOc1nc(N)c2cnn(C3CCCCO3)c2n1 (stereo unspecified),inactive: > 100 µM
17,COc1ccc(N2C(=O)C3ON(C(C(N)=O)c4ccccc4)C(c4ccc(-c5ccccc5)cc4)C3C2=O)cc1 (stereo unspecified),inactive: > 50 µM
18,COc1ccccc1NCC(=O)Nn1c(C)nc2ccc(S(=O)(=O)Nc3ccccc3OC)cc2c1=O,inactive: > 100 µM
19,CC(C)c1ccc(C(O)(C(=O)O)c2ccc(C(C)C)cc2)cc1,inactive: 43.3 µM
20,COc1ccc(C[C@H]2C(=O)O[C@H](C)[C@H](NC(=O)[C@@H](CC(C)C)C(C)C(=O)C3CCCN3C(=O)[C@H](C)O)C(=O)Nc3cccc(c3OC)C(=O)O[C@@H](C(C)C)C(=O)[C@H](C)C(=O)N[C@@H](CC(C)C)C(=O)N3CCC[C@H]3C(=O)N2C)cc1 (stereo partly specified) (H-[Lac][X53]T[X54]LP[NMeY](Me); ester 3-C),inactive: > 12.5 µM
21,Cc1cc(-c2nc3cccc(O)c3s2)ccc1N,inactive: 55.2 µM

row,Compound,GI50
1,O=C(/C=C/c1ccc(Cl)cc1)c1ccccc(=O)c1O,inactive: 2.23 µM
2,C/C1=C\[C@@H](O)C(=O)/C=C/C=C\c2csc(n2)[C@@H](C)NC(=O)C[C@@]2(CC1)[S+]([O-])SC(=O)[C@]2(C)O (stereo partly specified) [LEINAMYCIN],active: 0.124 µM
3,CN(CCN(C)C(=S)NN)C(=S)NN,inactive: > 100 µM
4,Cc1c(F)c(N)c2c(=O)cc(-c3ccc(N)c(F)c3)oc2c1F [AMINOFLAVONE],inactive: 23.9 µM
5,O=C(N/N=C/c1ccc([N+](=O)[O-])o1)c1ccc(C(=O)N/N=C/c2ccc([N+](=O)[O-])o2)cc1,inactive: 57.3 µM
6,COC(=O)/C=C/c1cnc2c(c1)oc(=O)n2C,inactive: > 100 µM
7,CCN(CC)c1ccc2cc(-c3nnc(-c4ccccc4O)o3)c(=O)oc2c1,inactive: 7 µM
8,Cc1ccc(/N=N/c2c(C)nn(-c3ccccc3)c2C)c(Br)c1,inactive: > 100 µM
9,CC(=O)OI1NC(=O)c2ccccc21,inactive: > 100 µM
10,SCc1ccc(CS)s1,inactive: > 100 µM
11,Cc1ccc2nc(/C(=C/c3ccc(/C=C(\NC(=O)c4ccccc4)c4nc5ccc(C)cc5[nH]4)c(C)c3)NC(=O)c3ccccc3)[nH]c2c1,inactive: 25.5 µM
12,O=C(NS(=O)(=O)OCC(Cl)(Cl)Cl)SCCC(F)(F)C(F)(F)C(F)(F)C(F)(F)C(F)(F)C(F)(F)F,inactive: 20.1 µM
13,O=[N+]([O-])c1cc2ncc(-c3ccccc3)c(O)c2cc1/C(Cl)=C/c1ccccc1,inactive: 13.6 µM
14,C#CC1(O)CCC2[C@@H]3CCc4cc(Oc5nc(F)nc(-c6c(C)c(C(=O)OCC)n7ccccc67)n5)ccc4C3CC[C@@]21C (stereo partly specified),inactive: > 100 µM
15,CN1Cc2cc3c(cc2-c2ccccc21)OCO3,inactive: > 100 µM
16,CCNCCNC(=O)c1ccc(I)cc1,inactive: > 100 µM
17,Cc1ccc(NC(=O)c2cc3ccccc3c(/N=N/c3cc(S(=O)(=O)O)ccc3O)c2O)c(C)c1,inactive: 14.2 µM
18,CC1(C)C2CC1C(/C=N\OCC(=O)O)=CC2=O (stereo unspecified),inactive: > 100 µM
19,O=c1[nH]/c(=C/c2ccc(OCc3ccccc3)cn2)c(=O)[nH]/c1=C/c1ccc(O)cc1,active: 1.07 µM
20,COc1cc([C@@H]2c3cc4c(cc3[C@@H](c3c(O)cc(O)c5c3O[C@H](c3ccc(O)c(O)c3)[C@H](OC(=O)c3cc(O)c(O)c(O)c3)C5)[C@H]3COC(=O)[C@H]23)OCO4)cc(OC)c1O,inactive: 34.8 µM

#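 Assay format: 96-well plates, 48-hour exposure. GI50 marks 50% less growth.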 The source made the active and inactive calls. Cut-off read from the data, not from the text of the source: active = GI50 up to about 1.1 µM and inactive = higher. Numbered stars: 1 amine (or outer) side, 2 acyl side, 3 side chain; on linkers, the order of the positions; unused ones are H or OH. Bridge positions count the residues as written; N and C are the ends. Square brackets hold non-standard residues; d marks the D form. Peptide text beside a SMILES is read from it. X54 = COc1c(N[*:1])cccc1C(=O)O[C@H](C(=O)[C@H](C)C(=O)[*:2])C(C)C; X53 = CC(C)C[C@H](C(=O)[*:2])C(C)C(=O)C1CCCN1[*:1]; NMeY = CN[C@@H](Cc1ccc(O)cc1)C(=O)O; Lac = C[C@H](O)C(=O)O
